Where a name gives a salt, the structure may show the parent alone. Over roughly 2,800 compounds, “cell viability relative to vehicle” has its median near 0.98; the lowest 2% begin near 0.45. The list shows a part of the results.
tested on: NCI-H2228 alectinib-DTP; experiment: cell viability relative to vehicle (fraction of vehicle); NCI-H2228 is an ALK-positive lung cancer line and DTP means drug-tolerant persister; higher = less growth inhibition; details: 100 nM; treatment time 6 days
Method in brief: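 Drug-tolerant persister NCI-H2228 cells, produced by 13 days in 1000 nM of a targeted drug, and their parental counterparts were seeded into 384-well plates and, the following day, given the 3114-agent TargetMol anti-cancer compound library at 100 nM or DMSO vehicle. After 6 days, the CellTiter-Glo 3D Cell Viability Assay was used to read ATP. Each entry reports viability compared with vehicle-treated cells.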

| Structure (SMILES) | cell viability |
| --- | --- |
| COc1cc(C)c(/C=C/C(C)=C/C=C/C(C)=C/C(=O)O)c(C)c1C [Acitretin] | 0.798 |
| C[n+]1cccc(C(=O)[O-])c1 [Trigonelline hydrochloride] | 0.954 |
| CCN1C(=O)CNc2ncc(-c3ccc(-c4nc[nH]n4)nc3C)nc21 | 0.8 |
| O=C(O)CCN1C(=O)/C(=C/c2ccc(-c3ccc([N+](=O)[O-])cc3)o2)SC1=S | 0.95 |
| Cc1cc(N2C[C@@H](C)N[C@@H](C)C2)ncc1-c1ccc(-c2nc3c(ccn3C)c(=O)[nH]2)cc1 | 0.757 |
| COC(=O)[C@@H](N)Cc1cnc[nH]1 [Methyl L-histidinate dihydrochloride] | 0.981 |
| NC(=O)[C@@H]1CC[C@@H]2CN1C(=O)N2OS(=O)(=O)O [Avibactam sodium] | 1.05 |
| CN[C@@H](C)C(=O)N[C@H](C(=O)N1CCC[C@H]1C(=O)Nc1snnc1-c1ccccc1)C1CCCCC1 | 1.16 |
| CN(C)C/C=C/C(=O)Nc1ccc(C(=O)N2CCC[C@@H](Nc3ncc(Cl)c(-c4c[nH]c5ccccc45)n3)C2)cc1 | 0.437 |
| O=C(/C=C/c1ccc2ccc(C(F)(F)F)cc2n1)c1ccncc1 | 1.06 |
| CN1CCN(c2cccc(Nc3nc4c(-c5ccc(S(C)(=O)=O)cc5)cccn4n3)c2)CC1 | 1.12 |
| Nc1nccc(Oc2ccc3c(C(=O)Nc4cccc(C(F)(F)F)c4)cccc3c2)n1 | 0.954 |
| COc1cc2nc(N3CCN(C(=O)C4CCCO4)CC3)nc(N)c2cc1OC (stereo not drawn) [Terazosin hydrochloride] | 1.12 |
| CCOC(=O)N1CCC(NCCNC(=O)c2ccccc2C)CC1 | 1.08 |
| CC(=O)OCC(=O)[C@@]1(O)CC[C@H]2[C@@H]3CCC4=CC(=O)CC[C@]4(C)[C@H]3C(=O)C[C@@]21C [Cortisone acetate] | 1.26 |
| COc1ccc(CC(=O)Nc2nc3c(s2)CCc2ccccc2-3)cc1OC | 1.2 |
| CC(C)(C)c1cc(C(=O)C(C#N)=NNc2cccc(Cl)c2)no1 | 1.05 |
| C#C[C@]1(O)CC[C@H]2[C@@H]3[C@H](C)CC4=C(CCC(=O)C4)[C@H]3CC[C@@]21C [Tibolone] | 1.17 |
| CCc1nc(C(N)=O)c(Nc2ccc(N3CCC(N4CCN(C)CC4)CC3)c(OC)c2)nc1NC1CCOCC1 [Gilteritinib] | 0.801 |
| CN(C)CCCOc1nn(Cc2ccccc2)c2ccccc12 [Benzydamine hydrochloride] | 1 |
| O=C1c2c(O)cc(O)cc2OC(c2ccc(O)c(O)c2)C1O (stereo not drawn) [Taxifolin] | 0.925 |
| Nc1ccn(C[C@@H](CO)OCP(=O)(O)O)c(=O)n1 [Cidofovir] | 0.986 |
| FC(F)(F)c1ccc(/C=C/c2nc(COc3ccc(CCCCn4ccnn4)cc3)co2)cc1 [Mubritinib] | 0.947 |

| Structure (SMILES) | cell viability |
| --- | --- |
| NC(=O)c1ncn([C@@H]2O[C@H](CO)[C@@H](O)[C@H]2O)c1O [Mizoribine] | 1.06 |
| Cc1cn([C@@H]2C[C@@H](O)[C@H](CO)O2)c(=O)[nH]c1=O [Telbivudine] | 0.881 |
| Cc1cc(NC(=O)c2cccc(NC(=O)/C=C/CN(C)C)c2)ccc1Nc1nccc(-c2cccnc2)n1 | 0.841 |
| CCOc1cc2ncc(C#N)c(Nc3ccc(OCc4ccccn4)c(Cl)c3)c2cc1NC(=O)/C=C/CN(C)C [Neratinib] | 0.587 |
| O=C(N/N=C/c1ccc([N+](=O)[O-])o1)c1ccc(O)cc1 [Nifuroxazide] | 0.929 |
| Cn1cc(C2=C(c3ccc(Cl)cc3Cl)C(=O)NC2=O)c2ccccc21 | 1.04 |
| O=C1Nc2cc(Br)ccc2/C1=C1/Nc2ccccc2/C1=N\O | 0.724 |
| CN(N=O)C(=O)N[C@@H](C=O)[C@@H](O)[C@H](O)[C@H](O)CO [Streptozocin] | 0.791 |
| O=C(NC(NC(=S)Nc1ccc(F)c([N+](=O)[O-])c1)C(Cl)(Cl)Cl)C(c1ccccc1)c1ccccc1 (stereo not drawn) | 0.861 |
| CCc1cc(C(N)=S)ccn1 [Ethinamide] | 0.966 |
| CC(=O)Nc1ccc(S(=O)(=O)Nc2ccc([N+](=O)[O-])cc2)cc1 [Sulfanitran] | 1.03 |
| CCc1c2c(nc3ccc(OC(=O)N4CCC(N5CCCCC5)CC4)cc13)-c1cc3c(c(=O)n1C2)COC(=O)[C@]3(O)CC [Irinotecan] | 1.07 |
| CCc1c2c(nc3ccc(OC(=O)N4CCC(N5CCCCC5)CC4)cc13)-c1cc3c(c(=O)n1C2)COC(=O)[C@]3(O)CC [Irinotecan hydrochloride trihydrate] | 1.05 |
| C[C@H]1[C@H](NC(=O)/C(=N\OC(C)(C)C(=O)O)c2csc(N)n2)C(=O)N1S(=O)(=O)O [Aztreonam] | 1.27 |
| C[C@H](O)[C@H]1CC[C@H]2[C@@H]3CC[C@@H]4C[C@H](O)CC[C@]4(C)[C@H]3CC[C@]12C [5Beta-Pregnane-3Alpha,20alpha-Diol] | 0.824 |
| OC[C@H]1O[C@@H](OCCc2ccc(O)cc2)[C@H](O)[C@@H](O)[C@@H]1O [Salidroside] | 0.915 |
| CNCCC=C1c2ccccc2CCc2ccccc21 [Nortriptyline hydrochloride] | 1.04 |
| CCC[C@H](NC(=O)/C(C#N)=C/c1cccc(Br)n1)c1ccccc1 [Degrasyn] | 0.935 |
| CCOC(=O)NCCCC(=O)NCCc1ccccc1 [SantacruzaMate A] | 0.96 |
| COC(=O)c1ccc(N2CCN(C)CC2)c(NC(=O)c2cccc(OC)c2)c1 | 0.839 |
| CC[C@H](C)[C@@H]([C@@H](CC(=O)N1CCC[C@H]1[C@H](OC)[C@@H](C)C(=O)N[C@@H](Cc1ccccc1)C(=O)O)OC)N(C)C(=O)[C@@H](NC(=O)[C@@H](NC)C(C)C)C(C)C [MonoMethyl auristatin F] | 0.645 |
| C=C1/C(=C\C=C2/CCC[C@]3(C)[C@@H]([C@H](C)CCCC(C)(C)O)CC[C@@H]23)C[C@@H](O)C[C@@H]1O [Calcitriol] | 0.807 |
| Cc1ccc(/C(=C\CN2CCCC2)c2ccccn2)cc1 [Triprolidine hydrochloride] | 1.18 |

| Structure (SMILES) | cell viability |
| --- | --- |
| c1ccc2c(Oc3nc(Nc4ccc(N5CCOCC5)cc4)c4ncn(C5CCCCC5)c4n3)cccc2c1 [Purmorphamine] | 0.889 |
| N#Cc1ccc(Cn2cncc2CN2CCN(c3cccc(Cl)c3)C(=O)C2)cc1 | 0.882 |
| C[C@]12C=CC(=O)C=C1CC[C@@H]1[C@@H]2C(=O)C[C@@]2(C)[C@H]1CC[C@]2(O)C(=O)CO [Prednisone] | 0.976 |
| COc1cc2nccc(Oc3ccc(NC(=O)Nc4ccc(F)cc4F)c(F)c3)c2cc1OC | 0.966 |
| CC1(C)[C@@H](O[C@H]2O[C@H](C(=O)O)[C@@H](O)[C@H](O)[C@H]2O[C@@H]2O[C@H](C(=O)O)[C@@H](O)[C@H](O)[C@H]2O)CC[C@]2(C)[C@H]3C(=O)C=C4[C@@H]5C[C@@](C)(C(=O)O)CC[C@]5(C)CC[C@@]4(C)[C@]3(C)CC[C@@H]12 [Diammonium Glycyrrhizinate] | 1.15 |
| CC1(C)[C@@H](O[C@H]2O[C@H](C(=O)O)[C@@H](O)[C@H](O)[C@H]2O[C@@H]2O[C@H](C(=O)O)[C@@H](O)[C@H](O)[C@H]2O)CC[C@]2(C)[C@H]3C(=O)C=C4[C@@H]5C[C@@](C)(C(=O)O)CC[C@]5(C)CC[C@@]4(C)[C@]3(C)CC[C@@H]12 [Glycyrrhizin] | 1.21 |
| CC(C)CN(C[C@@H](O)[C@H](Cc1ccccc1)NC(=O)O[C@H]1CCOC1)S(=O)(=O)c1ccc(N)cc1 [Amprenavir] | 1 |
| CCC1=C[C@@H]2CN(C1)Cc1c([nH]c3ccccc13)[C@@](C(=O)OC)(c1cc3c(cc1OC)N(C)[C@H]1[C@@](O)(C(=O)OC)[C@H](OC(C)=O)[C@]4(CC)C=CCN5CC[C@]31[C@@H]54)C2 [Vinorelbine Tartrate] | 0.864 |
| OCc1ccccc1 [Benzyl alcohol] | 0.987 |
| O=c1c(O)c(-c2ccc(O)cc2)oc2c(O)c(O)cc(O)c12 [Herbacetin] | 1.02 |
| CC(C)=CCC[C@](C)(O[C@@H]1O[C@H](CO)[C@@H](O)[C@H](O)[C@H]1O)[C@H]1CC[C@]2(C)[C@@H]1[C@H](O)C[C@@H]1[C@@]3(C)CC[C@H](O)C(C)(C)[C@@H]3[C@@H](O[C@@H]3O[C@H](CO)[C@@H](O)[C@H](O)[C@H]3O[C@@H]3OC[C@@H](O)[C@H](O)[C@H]3O)C[C@]12C [Notoginsenoside R1] | 0.966 |
| CNC(=C[N+](=O)[O-])NCCSCc1csc(CN(C)C)n1 [Nizatidine] | 0.816 |
| NC(=O)c1nc(-c2c(F)cccc2Cl)oc1Nc1ccc(C(=O)N2CCOCC2)cc1 | 0.929 |
| CS(=O)(=O)Nc1ccc([N+](=O)[O-])cc1Oc1ccccc1 [Nimesulide] | 0.949 |
| CCn1cc(C(=O)O)c(=O)c2cc(F)c(N3CCNC(C)C3)c(F)c21 (stereo not drawn) [Lomefloxacin hydrochloride] | 0.737 |
| CCn1cc(C(=O)O)c(=O)c2cc(F)c(N3CCNC(C)C3)c(F)c21 (stereo not drawn) [Lomefloxacin] | 0.995 |
| Cc1cc(Nc2cc(Cl)nc(Oc3ccc([N+](=O)[O-])cc3)n2)n[nH]1 [Autophinib] | 1.28 |
| C=CC(=O)Nc1cccc(Nc2nc(Nc3ccc(NC4CN(CCF)C4)cc3OC)ncc2C(F)(F)F)c1 | 0.909 |
| CCn1cc(C(=O)O)c(=O)c2cc(F)c(N3CCN(C)CC3)cc21 [Pefloxacin Mesylate Dihydrate] | 1 |
| N#CN=C(NCCCCCCOc1ccc(Cl)cc1)Nc1ccncc1 | 0.165 |
| NC(=O)c1[nH]cnc1N [4-Amino-5-imidazolecarboxamide] | 0.889 |
| O=C(O)c1ccc(CN2C[C@@H]3C[C@H]2CN3Cc2ccc(Oc3ccc(-c4ncco4)cc3)cc2)cc1 [Acebilustat] | 1.04 |

Reference: the supplement of paper PMC10600219
